Experimental findings from PubChem BioAssay AID360 (National Center for Advancing Translational Sciences (NCATS), 2006) are described below.

Screen size: about 48,000 compounds; about 550 (1.1%) were called active. Inconclusive results (about 4%) are left out. Cut-off read from the data, not from the text of the source: active = potency below about 15 µM; inconclusive = mostly about 16 µM to 33 µM; inactive = weaker than that. Some of the results follow.
Potency is the fitted concentration of half-maximal effect.

Chain of UniProt P04062 (P04062 whole entry, looked up): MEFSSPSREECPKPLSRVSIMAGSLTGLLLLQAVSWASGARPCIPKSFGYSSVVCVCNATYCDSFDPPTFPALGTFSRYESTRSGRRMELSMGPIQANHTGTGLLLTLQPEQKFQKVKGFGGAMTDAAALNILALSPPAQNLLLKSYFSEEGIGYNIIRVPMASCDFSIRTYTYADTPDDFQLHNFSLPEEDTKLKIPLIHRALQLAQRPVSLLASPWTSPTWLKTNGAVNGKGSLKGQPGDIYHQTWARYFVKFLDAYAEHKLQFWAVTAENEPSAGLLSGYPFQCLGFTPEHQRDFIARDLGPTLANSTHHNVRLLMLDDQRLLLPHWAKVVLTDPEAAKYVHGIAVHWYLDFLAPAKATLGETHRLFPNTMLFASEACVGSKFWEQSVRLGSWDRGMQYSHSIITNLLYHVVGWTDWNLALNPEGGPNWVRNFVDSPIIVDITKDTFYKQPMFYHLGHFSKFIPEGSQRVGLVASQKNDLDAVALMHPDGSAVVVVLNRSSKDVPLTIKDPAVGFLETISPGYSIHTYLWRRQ

The test addresses Lysosomal acid glucosylceramidase (Homo sapiens) (UniProt P04062). In words: Glucocerebrosidase.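 Note: the screen sought inhibitors.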 The conditions noted are these: purified enzyme, resorufin glucoside fluorescence (screen aimed at inhibitors), 20 min; series mostly up to 77 µM. The essentials:
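Normal human glucocerebrosidase (0.2 nM final) was assayed with resorufin β-D-glucopyranoside (30 uM final) in 50mM citric acid/KH2PO4, 10mM sodium taurocholate, 0.01% tween-20, pH 5.9. Compounds were titrated; fluorescence (Ex 548, Em 600) read after 20 min at RT.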
For `O=C(O)c1ccc(CSCc2ccccc2F)o1`, the Potency was inactive: > 76.9 µM.
As for `CCn1c(SCC(=O)Nc2cc(C)on2)nnc1-c1ccc(S(=O)(=O)N2CCCC2)cc1`, the figure is inactive: > 76.9 µM.
As for `Cc1c(C(=O)OCC(=O)c2ccc3c(c2)OCCO3)oc2ccccc12`, the figure is inactive: > 76.9 µM; as for `CCOC(=O)N1CCN(C(=O)CSCC(=O)N=c2sc3ccccc3n2C)CC1`, inactive: > 76.9 µM.
As for `O=C(COc1ccc2ccc(=O)oc2c1)Nc1ccc2c(c1)OCCO2`, the figure is inactive: > 76.9 µM; as for `CCOC(=O)COc1ccc(C2NC(C(=O)O)CS2)cc1` (stereo not drawn), inactive: > 76.9 µM.
In the case of `COCCN1Cc2cccc(C(=O)Nc3c(C)cccc3C)c2C1=O`, the Potency was inactive: > 76.9 µM.
As for `COc1ccc(CN2C(=O)c3ccccc3C2C(=O)NC2CCCC2)c(OC)c1` (stereo not drawn), the figure is inactive: > 76.9 µM; as for `CCOC(=O)c1ccc(N2C(=O)CC(N3CC(C)OC(C)C3)C2=O)cc1` (stereo not drawn), inactive: > 76.9 µM; as for `COc1ccccc1C1C(C(=O)c2sc(C)nc2C)=C(O)C(=O)N1CCN1CCOCC1` (stereo not drawn), inactive: > 76.9 µM.
As for `CNC(=O)CN(c1cc(C)ccc1C)S(C)(=O)=O`, the figure is inactive: > 76.9 µM; as for `Cc1nc(C)c(NC(=O)N2CCc3ccccc32)cc1NC(=O)N1CCc2ccccc21`, inactive: > 76.9 µM; as for `CCSC1=NC(=O)/C(=C2/C=Cc3ccccc3N2CC)S1`, inactive: > 76.9 µM.
As for `Cc1cc(=O)n(CCO)c(O)c1C#N`, the figure is inactive: > 76.9 µM; as for `c1ccc2c(c1)OCC(c1nnc3sc(-c4cnccn4)nn13)O2` (stereo not drawn), inactive: > 76.9 µM; as for `CN(C)S(=O)(=O)N1CCN(C(=O)N2CCCCC2)CC1`, inactive: > 76.9 µM.
In the case of `C=CCNC(=O)c1oc2ccc(S(=O)(=O)N(CC)CC)cc2c1C`, the Potency was inactive: > 76.9 µM.
As for `Cc1cc(C(=O)CSc2nnc(-c3ccccc3)n2Cc2ccc3c(c2)OCO3)c(C)n1C`, the figure is inactive: > 76.9 µM; as for `CCCn1nnc(NC(=O)c2ccccc2Br)n1`, inactive: > 76.9 µM; as for `CC1Cc2ccccc2N1C(=O)CSc1nnc(CSc2ncccn2)n1C` (stereo not drawn), inactive: > 76.9 µM.
As for `CN1C(=O)c2cccc3c(S(=O)(=O)NCc4ccco4)ccc1c23`, the figure is inactive: > 76.9 µM; as for `CCOC(=O)/C=C1\CC(=O)Nc2cc(C)c(C)cc2N1`, inactive: > 76.9 µM.
As for `COC(=O)CSc1nnc(-c2cccnc2)n1-c1cccc(OC)c1`, the figure is inactive: > 76.9 µM.
As to `CCCN(CCC)CCCNC(=O)c1cc2cc3ccc(OC)cc3nc2o1`, the Potency was inactive: > 76.9 µM.
Turning to `CC1CCC2(CC1)NC(=O)N(CC(=O)NC(=O)NC1CCCC1)C2=O` (stereo not drawn), the Potency is inactive: > 76.9 µM.
As to `O=C(NCc1ccc2c(c1)OCO2)c1c[nH]c2ccc(S(=O)(=O)N3CCOCC3)cc2c1=O`, the Potency was inactive: > 76.9 µM.
As for `O=C(CSc1ccc(Cl)cc1)OCc1nnc(-c2ccccc2)o1`, the figure is inactive: > 76.9 µM.
As for `CCCCN(CC)S(=O)(=O)N1CCC(C(=O)NCCCN2CCOCC2)CC1`, the Potency is inactive: > 76.9 µM.
As for `NC(=O)c1ccc(-n2nnnc2SCc2ccc(F)cc2)cc1`, the figure is inactive: > 76.9 µM; as for `CCCn1c(SCC(=O)Nc2ccccc2CC)nnc1C(C)C`, inactive: > 76.9 µM; as for `O=S(=O)(c1ccc2c(c1)nc(COc1ccc(Cl)cc1)n2CC1CCCO1)N1CCOCC1` (stereo not drawn), inactive: > 76.9 µM.
As for `COc1ccc(CCNc2cc(=O)[nH]c(N)n2)cc1`, the Potency is inactive: > 76.9 µM.
As for `CCn1c(CNC(=O)COc2c(C)cccc2C)nnc1SCC(=O)Nc1nccs1`, the figure is inactive: > 76.9 µM; as for `CCn1c(SCC(=O)N2CCN(S(=O)(=O)c3ccccc3)CC2)nnc1-c1cccs1`, inactive: > 76.9 µM.
As for `c1nnc(NC2=NCCCCC2)s1`, the figure is inactive: > 76.9 µM; as for `O=C(CN1CCN(CC(=O)c2ccc(F)cc2)CC1)Nc1ccccc1Cl`, inactive: > 76.9 µM; as for `CCOc1ccc2[nH]c(=O)c(CN(Cc3nnnn3CCc3ccccc3)CC3CCCO3)cc2c1` (stereo not drawn), “inactive”.
As for `CS(=O)(=O)N1CCCC(C(=O)N2CCOCC2)C1` (stereo not drawn), the figure is inactive: > 76.9 µM.
`O=C1Nc2ccccc2C12OCCCCO2`: the Potency was inactive: > 76.9 µM.
As for `CC1(C)CC(NC(=O)C2CCCCC2C(=O)O)CC(C)(C)N1` (stereo not drawn), the figure is inactive: > 76.9 µM.
As for `N#CC(C#SN)=C1CCCCC1`, the figure is inactive: > 76.9 µM; as for `CCS(=O)(=O)N1CCN(c2ccccc2F)CC1`, inactive: > 76.9 µM.
As for `CCCCCCn1ccc(=N)cc1`, the figure is inactive: > 76.9 µM.
On to `COc1cccc2cc(C(=O)NC3CC(C)(C)NC(C)(C)C3)c(=O)oc12`, for which the Potency was inactive: > 76.9 µM.
As to `COc1ccccc1-c1nnc(SCC(=O)OC(C)C)o1`, the Potency is inactive: > 76.9 µM.
As for `Fc1ccc(Cn2nnnc2CN2CCN(C3CCCCC3)CC2)cc1`, the figure is inactive: > 76.9 µM; as for `COCCCN(Cc1ccccn1)S(=O)(=O)Cc1ccccc1`, inactive: > 76.9 µM.
As for `Cc1occc1-c1nnc(SCC(=O)N2c3ccccc3CCc3ccccc32)n1C`, the figure is inactive: > 76.9 µM; as for `Cc1noc(C)c1CSc1nc2ccccc2[nH]1`, inactive: > 76.9 µM.
Turning to `O=C1CC(c2ccc(F)cc2)CC(O)=C1C=NCCN1CCN(C(=O)Nc2ccccc2)CC1` (stereo not drawn), the Potency was inactive: > 76.9 µM.
As for `O=C(COc1ccc(S(=O)(=O)N2CCCC2)cc1)NCc1ccco1`, the figure is inactive: > 76.9 µM.
As for `CCOC(=O)c1[nH]c(C)c(C(=O)Nc2ccc(C)c(F)c2)c1C`, the figure is inactive: > 76.9 µM; as for `CN1CCN(c2ccc(Cl)cc2NS(=O)(=O)c2ccccc2Cl)CC1`, active: 13 µM; as for `O=S(=O)(c1ccccc1)N1CCN(CC(O)COc2ccc3c(c2)CCC3)CC1` (stereo not drawn), inactive: > 76.9 µM.
As for `O=C1OCCC1Sc1ncnc2sccc12` (stereo not drawn), the figure is inactive: > 76.9 µM.
As for `CC(=O)c1cccc(NC(=O)C=C(C)C)c1`, the Potency is inactive: > 76.9 µM.
As for `c1ccc(CCn2nnnc2C(c2cccs2)N2CCOCC2)cc1` (stereo not drawn), the figure is inactive: > 76.9 µM.
On to `CCNc1nc(SC(C(C)=O)C(C)=O)nc(N(C)C)n1`, for which the Potency was inactive: > 76.9 µM.
As for `COc1ccccc1C(=O)NCCN1CCN(C(=O)c2ccccc2OC)CC1`, the figure is inactive: > 76.9 µM; as for `c1cc(-n2cnnn2)ccc1NC1=NCCC1`, inactive: > 76.9 µM; as for `Cc1nc(N2CCOCC2)[nH]c(=O)c1CCC(C)C`, inactive: > 76.9 µM.
As for `CCOC(=O)c1ccc2nc(NC(=O)c3cccs3)sc2c1`, the figure is inactive: > 76.9 µM; as for `N#Cc1cccc(NC(=O)COc2ccc(-n3ccnc3)cc2)c1`, inactive: > 76.9 µM; as for `O=C(CCCN1C(=O)c2ccccc2C1=O)Oc1ccc(F)cc1`, inactive: > 76.9 µM.
As for `O=C(CSc1nnc(-c2ccccc2O)o1)Oc1ccc(OCc2ccccc2)cc1`, the figure is inactive: > 76.9 µM; as for `Cn1nc(C(=O)NC2CCCCC2)c2ccccc2c1=O`, inactive: > 76.9 µM.
Take `Cc1[nH]c2ccccc2c1C1=CN2CCS(=O)(=O)N=C2S1`: the Potency was inactive: > 76.9 µM.
As for `CCOC(=O)C1CCCN(C(=O)COC(=O)C2=COCCO2)C1` (stereo not drawn), the figure is inactive: > 76.9 µM; as for `COc1ccc(CC(NC(C)=O)C(=O)NC2CCN(C(=O)NCc3ccccc3)CC2)cc1` (stereo not drawn), inactive: > 76.9 µM.
As for `COC(=O)Cn1nc(-c2ccccc2)c2ccccc2c1=O`, the figure is inactive: > 76.9 µM; as for `CC(C)(C)n1ncc2c(=O)n(CC(=O)N3CCN(c4ccccc4)CC3)cnc21`, inactive: > 76.9 µM.
As for `CN(C)c1nc(N)nc(CSc2nnnn2C)n1`, the figure is inactive: > 76.9 µM; as for `COc1ccccc1N1CCN(C(=O)c2cc(-c3ccc(Cl)c(Cl)c3)on2)CC1`, inactive: > 76.9 µM; as for `FC(F)(F)c1cc(-c2cccs2)nc(NCc2ccco2)n1`, inactive: > 76.9 µM.
Turning to `CN(C)c1ccc(-c2nn3c(-c4ccccc4Cl)nnc3s2)cc1`, the Potency is inactive: > 76.9 µM.
With `O=c1[nH]c(-c2ccccc2O)nc2c1CCCC2`, the Potency is active: 7.46 µM.
As for `O=C(O)c1cn[nH]c1-n1cnnn1`, the figure is inactive: > 76.9 µM; as for `Cc1[nH]c2ccc(Br)cc2c(=O)c1CN1CCOCC1`, inactive: > 76.9 µM.
As for `Cn1c(C(=O)OCC(=O)NCc2cccs2)cc2sccc21`, the figure is inactive: > 76.9 µM.
As for `Cc1cccc2cc(C(c3nnnn3CC3CCCO3)N3CCc4ccccc4C3)c(=O)[nH]c12` (stereo not drawn), the figure is inactive: > 76.9 µM; as for `COc1ccc(N2C(=O)CCC(C(=O)NCc3ccccn3)C2c2ccc(OC)c(OC)c2)cc1` (stereo not drawn), inactive: > 76.9 µM.
Turning to `CCOC(=O)c1c(C)n(C)c2ccc(O)c(CN3CCN(C)CC3)c12`, the Potency is inactive: > 76.9 µM.
As for `Cc1ccc(-c2nn3c(C)nnc3s2)cc1NC(=O)c1cccs1`, the figure is inactive: > 76.9 µM; as for `CCCC(c1nnnn1CC(=O)OCC)N(Cc1cc2ccc(C)cc2[nH]c1=O)C1CCCC1` (stereo not drawn), inactive: > 76.9 µM.
As for `O=C(O)CCC(=O)Nc1ccccc1C(=O)NC1CCCCC1`, the figure is inactive: > 76.9 µM; as for `COC(=O)c1cn(C(=O)c2cccs2)c2ccccc12`, inactive: > 76.9 µM; as for `COC(=O)c1oc2ccc(Cl)cc2c1NC(C)=O`, inactive: > 76.9 µM.
For the molecule `COc1ccccc1-c1cc(N)n[nH]1`, the Potency is inactive: > 76.9 µM.
As for `COCC(=O)c1[nH]c2ccccc2c1C`, the figure is inactive: > 76.9 µM; as for `Cc1nc2ccc(NC3=NCCCCC3)cc2s1`, inactive: > 76.9 µM.
For `COc1cc(Br)cc(-c2nc3c(c(=O)[nH]c(=O)n3Cc3ccccc3)n2C)c1O`, the Potency was inactive: > 76.9 µM.
As for `CCN(CC)S(=O)(=O)c1ccc(-c2nnc(SCC(=O)N3CCc4ccccc43)o2)cc1`, the figure is inactive: > 76.9 µM; as for `c1ccc(-c2ccc(OCCCn3cncn3)cc2)cc1`, inactive: > 76.9 µM.
